# The supplement of paper PMC12217912
# The other results are listed elsewhere or left out. Sequences were assembled here from the parent chain. Inactive controls read about 0.05.
# B1: TEV protease; numbered along this chain (parent)
# chain: MGESLFKGPRDYNPISSSICHLTNESDGHTTSLYGIGFGPFIITNKHLFRRNNGTLVVQSLHGVFKVKDTTTLQQHLVDGRDMIIIRMPKDFPPFPQKLKFREPQREERICLVTTNFQTKSMSSMVSDTSCTFPSGDGIFWKHWIQTKDGQCGSPLVSTRDGFIVGIHSASNFTNTNNYFTSVPKNFMELLTNQEAQQWVSGWRLNADSVLWGGHKVFMVKPEEPFQPVKEATQL
# Variants of: B1
# Assay: raw area under fraction-flipped curve 0-4 h after induction (AUC4h, not background-subtracted), DNA-recorder readout of cleavage of the substrate (dimensionless); higher = more cleavage of the substrate by the protease variant
# Conditions: temperature: 34 °C; time window: 0-4 h after rhamnose induction
# Protocol: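 In vivo DNA recorder in E. coli TOP10(DE3) ΔrhaA at 34 °C. Each TEVp single-site mutant (parent TEVp 0) is paired with a single-site variant of the 7-mer TEVs (canonical ENLYFQ|S). The substrate sits between flexible linkers in a Bxb1-sfGFP-TEVs-SsrA fusion, so cleavage stabilises Bxb1 and speeds flipping of a recombination array, read by NGS. The value is the raw area under the fraction-flipped curve over 0-4 h after rhamnose induction (AUC4h), with ≥20 reads per time point. It is not background-subtracted; inactive controls average about 0.047.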
# 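Further: Bxb1 expression induced with 0.2% (w/v) L-rhamnose at OD600 near 0.5, cultures sampled hourly, flipped fraction per protease–substrate barcode pair counted by paired-end Illumina sequencing.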
Variant,area with substrate EALYFQS,area with substrate EDLYFQS,area with substrate EELYFQS,area with substrate EFLYFQS,area with substrate EGLYFQS,area with substrate EKLYFQS,area with substrate ELLYFQS,area with substrate EMLYFQS,area with substrate EPLYFQS,area with substrate EQLYFQS,area with substrate ERLYFQS,area with substrate ESLYFQS,area with substrate ETLYFQS,area with substrate EVLYFQS,area with substrate EWLYFQS,area with substrate EHLYFQS,area with substrate EILYFQS,area with substrate EYLYFQS,area with substrate ECLYFQS
MGESLFKGPRDYNPISSSICHLTNESDGHTTSLYGIGFGPFIITNKHLFRRNNGTLVVQSLHGVFKVKDLTTLQQHLVDGRDMIIIRMPKDFPPFPQKLKFREPQREERICLVTTNFQTKSMSSMVSDTSCTFPSGDGIFWKHWIQTKDGQCGSPLVSTRDGFIVGIHSASNFTNTNNYFTSVPKNFMELLTNQEAQQWVSGWRLNADSVLWGGHKVFMVKPEEPFQPVKEATQL [T70L],0.0897,0.0894,0.0666,0.0857,0.0635,0.0789,0.0788,0.0977,0.161,0.0853,0.0825,0.0862,0.0765,0.0801,0.0787,–,–,–,–
MGESLFKGPRDYNPISSSICHLTNESDGHTTSLYGIGFGPFIITNKHLFRRNNGTLVVQSLHGVFKVKDTTTLQQWLVDGRDMIIIRMPKDFPPFPQKLKFREPQREERICLVTTNFQTKSMSSMVSDTSCTFPSGDGIFWKHWIQTKDGQCGSPLVSTRDGFIVGIHSASNFTNTNNYFTSVPKNFMELLTNQEAQQWVSGWRLNADSVLWGGHKVFMVKPEEPFQPVKEATQL [H76W],0.104,0.0946,0.0646,0.0928,0.0728,0.104,–,0.0815,0.12,0.0759,0.0756,0.0873,–,–,–,0.0814,0.0731,–,–
MGESLFKGPRDYNPISSSICHLTNESDGHTTSLYGIGFGPFIITNKHLFRRNNGTLVVQSLHGVFKVKDTTTLQQMLVDGRDMIIIRMPKDFPPFPQKLKFREPQREERICLVTTNFQTKSMSSMVSDTSCTFPSGDGIFWKHWIQTKDGQCGSPLVSTRDGFIVGIHSASNFTNTNNYFTSVPKNFMELLTNQEAQQWVSGWRLNADSVLWGGHKVFMVKPEEPFQPVKEATQL [H76M],0.108,0.0869,0.121,–,0.126,–,0.118,0.0998,–,0.156,0.1,0.116,–,–,–,–,0.102,–,–
MGESLFKGPRDYNPISSSICHLTNESDGHTTSLYGIGFGPFIITNKHLFRRNNGTLVVQSLHGVFKVKDTTTLQQDLVDGRDMIIIRMPKDFPPFPQKLKFREPQREERICLVTTNFQTKSMSSMVSDTSCTFPSGDGIFWKHWIQTKDGQCGSPLVSTRDGFIVGIHSASNFTNTNNYFTSVPKNFMELLTNQEAQQWVSGWRLNADSVLWGGHKVFMVKPEEPFQPVKEATQL [H76D],0.0591,–,0.0617,–,–,0.0623,0.0565,0.0598,0.078,0.0775,0.0761,0.067,–,0.061,0.0539,–,0.0439,0.0851,–
MGESLFKGPRDYNPISSSICHLTNESDGHTTSLYGIGFGPFIITNKHLFRRNNGTLVVQSLHGVFKVKDTTTLQQLLVDGRDMIIIRMPKDFPPFPQKLKFREPQREERICLVTTNFQTKSMSSMVSDTSCTFPSGDGIFWKHWIQTKDGQCGSPLVSTRDGFIVGIHSASNFTNTNNYFTSVPKNFMELLTNQEAQQWVSGWRLNADSVLWGGHKVFMVKPEEPFQPVKEATQL [H76L],0.18,0.14,–,–,0.0805,0.114,–,–,–,0.124,–,0.119,0.143,0.0787,–,–,–,–,0.0734
MGESLFKGPRDYNPISSSICHLTNESDGHTTSLYGIGFGPFIITNKHLFRRNNGTLVVQSLHGVFKVKDTVTLQQHLVDGRDMIIIRMPKDFPPFPQKLKFREPQREERICLVTTNFQTKSMSSMVSDTSCTFPSGDGIFWKHWIQTKDGQCGSPLVSTRDGFIVGIHSASNFTNTNNYFTSVPKNFMELLTNQEAQQWVSGWRLNADSVLWGGHKVFMVKPEEPFQPVKEATQL [T71V],0.0969,0.0917,–,–,0.0798,–,0.0862,–,–,0.0954,0.0969,0.0968,–,–,0.0819,–,0.0616,0.0902,0.0863
MGESLFKGPRDYNPISSSICHLTNESDGHTTSLYGIGFGPFIITNKHLFRRNNGTLVVQSLHGVFKVKDTTTQQQHLVDGRDMIIIRMPKDFPPFPQKLKFREPQREERICLVTTNFQTKSMSSMVSDTSCTFPSGDGIFWKHWIQTKDGQCGSPLVSTRDGFIVGIHSASNFTNTNNYFTSVPKNFMELLTNQEAQQWVSGWRLNADSVLWGGHKVFMVKPEEPFQPVKEATQL [L73Q],0.0821,0.0641,0.0664,0.0489,0.0627,0.0707,–,0.0662,0.0674,0.0701,0.0563,0.0716,0.0599,0.0595,0.0564,0.0573,0.0421,0.0733,–
MGESLFKGPRDYNPISSSICHLTNESDGHTTSLYGIGFGPFIITNKHLFRRNNGTLVVQSLHGVFKVKDTTTEQQHLVDGRDMIIIRMPKDFPPFPQKLKFREPQREERICLVTTNFQTKSMSSMVSDTSCTFPSGDGIFWKHWIQTKDGQCGSPLVSTRDGFIVGIHSASNFTNTNNYFTSVPKNFMELLTNQEAQQWVSGWRLNADSVLWGGHKVFMVKPEEPFQPVKEATQL [L73E],0.0534,–,–,–,0.0574,0.0645,0.0545,0.0472,0.0485,–,0.0497,0.0602,–,–,0.061,–,0.0441,–,–
MGESLFKGPRDYNPISSSICHLTNESDGHTTSLYGIGFGPFIITNKHLFRRNNGTLVVQSLHGVFKVKDTTTRQQHLVDGRDMIIIRMPKDFPPFPQKLKFREPQREERICLVTTNFQTKSMSSMVSDTSCTFPSGDGIFWKHWIQTKDGQCGSPLVSTRDGFIVGIHSASNFTNTNNYFTSVPKNFMELLTNQEAQQWVSGWRLNADSVLWGGHKVFMVKPEEPFQPVKEATQL [L73R],0.0616,0.0569,0.0523,–,–,0.103,0.0561,0.0605,0.0745,0.0759,0.0635,0.0574,0.0576,0.0731,0.128,–,0.061,–,–
